B1: LINE1-mini (parent)
chain: GGCAGAGCUCAACACAGCGUGGCAAAGUGGCUGUGGCUAGACUGCC

The source gives no read counts; variants with many changes may rest on few reads.

Data on 167 variants can be found in the RNAGym collection of RNA variant scans (doi:10.7554/elife.90254).

Variants of B1 are the subject of this data set. The data set can be described thus: self-cleavage, relative activity (ratio to wild type); higher = more cleavage; in vitro, sequencing; the parent is a self-cleaving ribozyme.
For the variant A14C G19U G36A, the self-cleavage stood at 0.05.
Then C18U A26G C31G G36C, with 0.01.
G1U G2A G7U G21U: the self-cleavage was determined as 0.21.
As for A14C C15U C46U, the self-cleavage turned out to be 0.46.
Then G2A U9G C10U C15U A39U G44A, with 0.11; and A6C C8A C23U C42U, with 0.
Then G2C A6C A26U A41U, with 0.08; and C8G C13U G30C, with 0.06.
Then U9C A14G G30A C31G G36C C42G, with 0.01; and A6G C10A G44U, with 0.06.
With C3A A26C C37A, the self-cleavage was 0.43.
On to C10G U28A C37A U43A, for which the self-cleavage worked out at 0.
Then C3A G7C C8G A41C, with 0.42; and G7A A16U C31U, with 0.06; and G30U U34A C45A, with 0.03.
Then G1U G2A C15U A25U G36A, with 0.22; and A12G G19U G36A C42U, with 0.01; and U9C C23G U34C C37U, with 0.02.
Then A6C C31A C42A, with 0.03; and G1C G2C A12U C23G, with 0; and U9A C10U G30U C42A, with 0.05.
Regarding A26G G27U C37U, the self-cleavage is 0.05.
As for C3A G19U A24C C31A U43A, the self-cleavage turned out to be 0.04.
Turning to C8G C18G C23U G27U, the self-cleavage worked out at 0.06.
Then U20C A25U G27U U32C, with 0.02; and G29A G30A G35C C42G, with 0.05; and G2U C23A G29U U34C, with 0.05.
A12C A14C G21U G33A: the self-cleavage amounted to 0.03.
Then A4C C10A C18A U28A, with 0.01; and G1A C18U G21A, with 1.86; and C18A G22A C37A, with 0.13.
With G5U A6U C8U C10A G44U C45A, the self-cleavage came to 0.05.
Then G2A C10A A12C G27C G33U G35U, with 0.02; and C10G A24U A41C, with 0.01; and U32C U38G C45G, with 0.01.
Turning to A16G A26U C45A, the self-cleavage is 0.11.
Then U20A G30U C31U, with 0.05; and G1A C13G C42A, with 0.04; and G19C A39G A41G C46U, with 0.
Then C15A C23U A24G, with 0.16.
Then G22A A26G A41G, with 0.28.
On to A26C G35C C37G, for which the self-cleavage came out at 0.39.
Then C18U U32C A41C, with 0.02.
Then A11G G27A U28A G30A, with 0.03; and A11C C37G C45U, with 0.
Regarding G7C C8G C42A, the self-cleavage came to 0.02.
Then A24C A25C U34G U43C, with 0; and C8U A16G G40A, with 0.16; and G2U C8A U38C A39U, with 0.06.
Then G1A G17U G21U A25G G30C, with 0.2.
G5U A11G A16C: the self-cleavage was 0.04.
Then A4C G22A A26G C31A A39C, with 0.08; and A11U A16U A24U A26G G27C, with 0.02.
Then C13A G36A U38C, with 0.02.
Then G1C G29C G30C U43G, with 0.06; and C10U C18A U32A A39C G44C, with 0; and C31A C45A C46G, with 0.05.
As to G1C G2U C23A U28G, the self-cleavage was 0.07.
Then C10A C15A U34A, with 0.
Then U9A G17C G27C, with 0.15; and G2U A4C G5U, with 0.1.
Then A4C A12G C31G A39U, with 0.19; and A11C A12G G17U G19A U32C G35U G40U, with 0.01.
Regarding G1A C3U G35A C45G, the self-cleavage stood at 0.13.
Consider C8G C15U G29U C31A C46G, for which the self-cleavage was found to be 0.17.
Then C3G C31A C37U, with 0.21.
Then C8A C10G G21C U28C, with 0.01.
Then A6G A25U A39U, with 0.06; and C8G C18A U38G C42U, with 0.08.
Take G7U C10A C37U U38G: the self-cleavage amounted to 0.04.
Then G2C A24G C46G, with 0.18; and C23G A26C G27U C45U, with 0.46; and A11U A24G A26G, with 0.51.
Then A25U A26G G40A, with 0.11; and G1C A4U C18G C23G G35C G36U, with 0.04; and G2U A26G G33U G35C, with 0.01.
As for A16G C18U C37G, the self-cleavage was 1.24.
Then C8A G19U C31A G36A G44U, with 0.02.
Then A11C A12C G30U, with 0.01; and C23A U28A C31U, with 0.54; and G5A A11G A14U G21U C23U, with 0.02.
Then G5U C18A C23G, with 0.2; and A6U G27C C31G, with 0.05; and G21U G27U G29A G30U U38G C42G G44A, with 0.01.
Take C10G G22A C45A: the self-cleavage was found to be 0.08.
Then G7A U28C G33C, with 0.15.
C3A C8U A14G G21A G44U: the self-cleavage amounted to 0.64.
For the variant G2C G5A G33A, the self-cleavage stood at 0.01.
Then G7U A14C G17C C46A, with 0.03.
Then A16U C23U A26U U32A, with 0.44; and C15A C37G C45A C46U, with 0.01.
As for U9G C10A A14C A26G U34G, the self-cleavage was determined as 0.01.
A16U C18G G40U: the self-cleavage was 0.08.
A12C G27U U32C G33C A41U: the self-cleavage was determined as 0.01.
Then C13U C15A U38A C45A, with 0.02.
Turning to G5U C13G C23U C45G, the self-cleavage amounted to 0.02.
Then A12G C13A G35U C37G, with 0.
Then C10A U20G U34G, with 0.02.
Turning to C13A G22U G35C, the self-cleavage is 0.06.
With G1C A16G G21U, the self-cleavage is 0.08.
As for A11C G22C U43C, the self-cleavage was found to be 0.02.
A11G A25G G35A: the self-cleavage came to 0.02.
Then G2C C10U C31U A41C, with 0.03; and G2A A6G U9A A14G U43A, with 0.11.
Regarding G1U C8A G40A, the self-cleavage is 0.06.
As for C13G G21C G35U C37G U43G, the self-cleavage was found to be 1.04.
Then C3U G17U C37U, with 0.04.
Then U20C U28C U32C G44A, with 0.02; and G1A U20G C23U G29C C31G A41C, with 0.02; and G22C U34G U38A, with 0.18.
Then G27U G30A G44U, with 0.4; and C8U C15U A16U C31U U43A, with 0.02.
A6G A24U U28A: the self-cleavage was 0.01.
Then C3U C10A A41C, with 0.03; and G21A G27U U34G, with 1.82.
Then A4C U9A G19U C23A, with 0.15.
For C8A G21A G27C, the self-cleavage worked out at 0.26.
Then G29C G30A C37A G40A, with 0.13.
As for C3A A6G C10U, the self-cleavage was found to be 0.04.
As for G21C C23G C31U U38A, the self-cleavage was 0.22.
Take U9G G17A U38C C42A C45G: the self-cleavage is 0.11.
Then C8G A11U C15A C23G, with 0.
Then U9C G17U A41G C45G C46A, with 0.02.
Then A4G C13U C18A, with 0.01.
Consider G1C C8U A26G U28C G30A G33U, for which the self-cleavage worked out at 0.03.
For the variant A4U A11C C31G, the self-cleavage is 0.02.
Take C8G A14G G17C G30A: the self-cleavage came out at 0.09.
Turning to G5C U9A A25U, the self-cleavage amounted to 0.05.
Then C10A G17U C23G G35U G40A, with 0.01; and G5A C8A C10G G35U C37A G40U, with 0.01; and A6C C13G A39U, with 0.03.
Consider G1U G5A G17U, for which the self-cleavage stood at 0.09.
As for G1A A11C C18U C42U, the self-cleavage was found to be 0.02.
Turning to C15U U20C A39G, the self-cleavage came out at 0.05.
Then A14U C23U A41C C42U, with 0.23; and C8U C10A G17U A25G, with 0.03; and G22U A26G G40U U43G, with 0.01.
Turning to G19C C23G G44A, the self-cleavage is 0.24.
As for G19U G27U G30A C46U, the self-cleavage worked out at 0.97.
As for G5U A6C U28G U38C, the self-cleavage stood at 0.06.
Turning to G7U C31A A39U, the self-cleavage was 0.19.
On to G1C G22C A26U G30U, for which the self-cleavage was determined as 0.03.
Then G5A C13A G19C G22A C31A G33C, with 0.02; and G29C G36U C45G C46G, with 0.07; and C18A G29A U34C G44U, with 0.05.
Then G7U G40U U43A, with 0.13; and C23G G30C G40U C42U, with 0.02; and G2A C3G C13A C31G U32A, with 0.32.
Then G1C G5A C23U, with 0.04; and G2A C3U A4G, with 0.05.
As to G5C G30C G35A, the self-cleavage stood at 0.06.
Then C13U A14G G17A G21C G22U C31A C42U, with 0.01; and G1U A14U C18G, with 0.09.
On to A16C U20G U38G, for which the self-cleavage is 0.
Turning to C13A A16C A25C G44C C46A, the self-cleavage came to 0.02.
Then A25G C31A U38A, with 0.03.
Then A6U A11G C18U C31G, with 0.01; and G17C G22C A25U G36A, with 0.07; and G2C A16G G30A C31U A41G, with 0.02.
As to G27U C31G G36C, the self-cleavage was 0.06.
Then G2U U20A G40C, with 0.
Then A6C A24G U34G, with 0.03; and C42A U43A G44C, with 0.03; and C13G A14U A26U G40C C42U, with 0.05.
Consider G1C G35U A41C, for which the self-cleavage is 0.01.
Then G7U U28C C31U, with 0.03; and G27A C31G U43A, with 0.12.
